# According to PubChem BioAssay AID1476 (National Center for Advancing Translational Sciences (NCATS), 2009):
# Values joined by “and” are separate entries in the source; they are usually repeats but may differ in a detail not shown here. Equal entries are not always repeated. The whole screen tested about 200,000 compounds, of which about 4,500 (2.2%) were called active. Inconclusive means that the source gave no clear call. Such entries were picked first, then a sample of the others. The call rests on the fitted dose curve; in most records, active means well fitted inhibition curve with a large enough effect; inconclusive means small, poorly fitted or top-dose-only effect, or effect the other way; inactive means flat fitted curve, though single readings scatter. Potencies of inconclusive entries are doubtful fits and often do not repeat.
# Molecular target: Cruzipain (Trypanosoma cruzi) (UniProt P25779)
# Assay: qHTS Assay for Promiscuous and Specific Inhibitors of Cruzain (without detergent); further: nearly all actives have a fitted effect of over 40% in size;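 on max response, negative = inhibition: plate controls were enzyme without inhibitor for no effect and buffer without enzyme for full effect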
# Conditions: purified cruzain, Z-FR-AMC fluorescence, no detergent
# Procedure, shortened: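 Detergent-free condition (0.00005% Triton X-100) in acetate buffer pH 5.5 with DTT. 1.5 nM enzyme and compound were pre-mixed 15 min, then 2 uM Z-FR-AMC substrate added; reaction progress from fluorescence change between first and third reads (60 s).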
# Potency means the concentration at half of the fitted maximal effect; tags describe the fitted curve by direction and shape.
# Sequence of UniProt P25779 (P25779 whole entry, looked up): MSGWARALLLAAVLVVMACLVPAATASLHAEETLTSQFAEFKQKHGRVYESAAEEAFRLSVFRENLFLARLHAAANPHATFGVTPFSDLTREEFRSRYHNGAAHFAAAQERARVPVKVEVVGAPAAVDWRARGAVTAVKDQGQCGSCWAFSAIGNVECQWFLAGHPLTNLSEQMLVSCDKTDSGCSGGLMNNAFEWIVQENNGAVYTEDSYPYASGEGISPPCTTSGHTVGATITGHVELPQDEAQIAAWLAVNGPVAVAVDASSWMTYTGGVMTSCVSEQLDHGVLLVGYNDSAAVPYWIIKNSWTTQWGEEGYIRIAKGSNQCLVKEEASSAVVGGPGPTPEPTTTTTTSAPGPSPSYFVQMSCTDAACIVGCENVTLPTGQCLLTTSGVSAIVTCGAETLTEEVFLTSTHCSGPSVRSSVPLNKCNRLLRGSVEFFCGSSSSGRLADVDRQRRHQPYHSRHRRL
Compound,"max response, negative = inhibition",Potency
Clc1ccc(Cn2ncc3c(NCc4ccccc4)ncnc32)cc1,inactive: 4.58%,
NC(=O)C1=CN(C2OC(COP(=O)(O)OP(=O)(O)OC[C@H]3O[C@@H](n4cnc5c(N)ncnc54)[C@H](OP(=O)(O)O)[C@H]3O)C(O)C2O)C=CC1 (stereo partly specified),inactive: 6.74%,
O=C(Nc1ccccc1-c1nnn(CC(=O)N2CCN(c3ccccc3)CC2)n1)c1cccs1,,"inconclusive: 31.6 µM [inhibitor, single point]"
CCc1nnc(NC(=O)c2oc3cc(C)c(C)cc3c2C)s1,,active: 12.6 µM
Nc1c(C(=O)O)sc2nc(-c3ccccc3)c3c(c12)CCCC3,,"inconclusive: 20 µM [inhibitor, single point]"
Cc1nn(C(C)C(=O)Nc2cccc(F)c2)c(=O)c2c1sc1ccccc12 (stereo unspecified),,"inconclusive: 31.6 µM [activator, single point]"
COc1ccc(-n2sc3c(c2=S)-c2cc(OC)ccc2NC3(C)C)cc1,,"inconclusive: 31.6 µM [inhibitor, single point]"
Cc1ccc(Nc2c(-c3ccc(N4CCOCC4)cc3)nc3ncccn23)c(C)c1,,"inconclusive: 39.8 µM [activator, single point]"
COCCNC(=O)CCSc1nc(-c2ccc(OC)cc2)cc(C(F)(F)F)n1,,"inconclusive: 31.6 µM [activator, single point] and inconclusive: 39.8 µM [activator, single point]"
COc1ccccc1C(=O)Nc1sc2c(c1C(=O)NCc1ccco1)CCCC2,,active: 7.94 µM
COC(=O)c1sc2ccccc2c1-n1cccc1C(=O)C(=O)Nc1ccc(OC)cc1,,"inconclusive: 31.6 µM [inhibitor, single point]"
CC(C)N(C(=O)CSc1nn2c(=O)c(C(C)(C)C)nnc2s1)c1ccccc1,inactive: 19.2%,
CCCCN(CCCNC(=O)c1c(C)cc(=O)oc1C)c1ccccc1,,"inconclusive: 25.1 µM [activator, single point]"
CCc1cc2c(=O)c(-c3ccc4c(c3)OCCO4)coc2cc1OS(C)(=O)=O,,"inconclusive: 31.6 µM [inhibitor, single point]"
NC(=O)C1CCN(c2nc(C3CC3)nc3c2nnn3Cc2ccccc2Cl)CC1,,"inconclusive: 31.6 µM [activator, single point]"
CCOC(=O)c1cc(S(=O)(=O)Nc2cc(C)c(Cl)cc2OC)[nH]n1,inactive: -0.219%,
COc1c(Cl)cc(Cl)cc1C(=O)Nc1cccc2cccnc12,inactive: -4.23%,
COc1ccc(Cl)cc1NC(=O)COC(=O)CNC(=O)c1ccc([N+](=O)[O-])c(C)c1,,"inconclusive: 31.6 µM [inhibitor, single point]"
O=C(CCSCc1cccc(Cl)c1)NCCc1ccccc1,,"inconclusive: 6.31 µM [activator, single point]"
COc1cc([N+](=O)[O-])ccc1-c1ccc(C(=O)Nc2ccc(NC(C)=O)cc2)o1,,"inconclusive: 39.8 µM [inhibitor, single point]"
O=C(CSc1nc2c(c(=O)[nH]1)CCC2)Nc1cc(C(F)(F)F)ccc1Cl,inactive: -5.19%,
CCCC(=O)N1CCN(c2ccc(NC(=O)c3sc4ccccc4c3Cl)cc2)CC1,,"inconclusive: 39.8 µM [inhibitor, single point]"

Compound,"max response, negative = inhibition",Potency
O=C(Nc1ccc2ccccc2c1)c1cn(-c2ccccc2)nc1-c1cccs1,,active: 20 µM
CCC(C(=O)NC1CCCCC1)n1nc(C)c2sc3ccccc3c2c1=O (stereo unspecified),,"inconclusive: 6.31 µM [inhibitor, single point]"
COc1ccc(CNC(=O)C(c2ccc(C)o2)N(C(=O)c2csnn2)c2ccc(C(C)C)cc2)cc1 (stereo unspecified),,"inconclusive: 39.8 µM [activator, single point]"
COc1ccc(NC(=S)NCCSc2ccc(Cl)cc2)c(OC)c1,,"inconclusive: 0.158 µM [inhibitor, full curve, poor fit]"
CCC(=S)/C=C1\Sc2ccc3ccccc3c2N1CCCS(=O)(=O)O,,"inconclusive: 39.8 µM [activator, single point]"
CCOc1ccc(OCC)c(NS(=O)(=O)c2ccc3c(c2)CCCN3C(C)=O)c1,,"inconclusive: 39.8 µM [activator, single point]"
Cc1ccn2c(CCc3nnc4cc(C)ccn34)nnc2c1,inactive: 5.14%,
CCc1nnc(NC(=O)c2nc(SCc3ccc(F)cc3)ncc2Cl)s1,inactive: -18.9%,
C/C(=N/NS(=O)(=O)c1ccc(C)cc1)P(=O)(O)O,inactive: 4.43%,
Cc1ccccc1-c1noc(-c2ccc(NC3CCCC3)c([N+](=O)[O-])c2)n1,inactive: 5.1%,
COC(=O)N[C@@H](CCc1ccccc1)/C(C(=O)OC)=C(\C)NCc1ccccc1,inactive: -4.89%,
O=c1cc(CSc2nnnn2-c2ccccc2)nc2scc(-c3ccccc3)n12,,active: 25.1 µM
Cc1ccc(S(=O)(=O)N(C)c2ccc(OCC(=O)Nc3nc4ccccc4s3)cc2)cc1,,"inconclusive: 39.8 µM [inhibitor, single point]"
COc1ccc(/C=N/NC(=O)c2cccc(OC(F)(F)C(F)F)c2)c(OC)c1OC,,"inconclusive: 39.8 µM [activator, single point]"
COc1ccc(C(=O)CC2(O)C(=O)N(CCc3ccccc3)c3ccc(Br)cc32)cc1OC (stereo unspecified),,"inconclusive: 39.8 µM [activator, single point]"
CC(=O)Nc1ccc(S(=O)(=O)NC2=C(N3CCN(c4ccc(F)cc4)CC3)C(=O)c3ccccc3C2=O)cc1,,"inconclusive: 39.8 µM [activator, single point]"
O=C(/C=C/c1ccccc1)Nc1ccc(N2CCCCC2)cc1,inactive: -2.89%,
COc1ccc2nc(NC(=O)CSc3nnc4n3C(C)(C)Cc3ccccc3-4)sc2c1,,"inconclusive: 3.98 µM [activator, single point]"
COc1cc(CN(C(=O)c2ccc(C)cc2)c2ccccn2)cc(OC)c1OC,inactive: 9.38%,
CN(C)c1ccc(CNC(=O)[C@@]2(C)C=C[C@@H](Cc3ccccc3)N2C)cc1,inactive: 1.61%,
Cc1ccc(C2=NN(CCC(=O)NCCc3cccc(C)c3)C(=O)CC2)cc1,,"inconclusive: 31.6 µM [activator, partial curve]"
O=S(=O)(Nc1nc2ccccc2nc1N1CCc2ccccc2C1)c1ccc(Br)cc1,,active: 7.94 µM

Compound,"max response, negative = inhibition",Potency
COc1ccccc1N1CCN(C(=O)c2cc3sccc3n2C)CC1,,"inconclusive: 25.1 µM [activator, single point]"
O=C(CSc1nnc(-c2c[nH]c3ccccc23)o1)c1ccc(-c2ccccc2)cc1,,active: 5.01 µM
Cc1ccc(S(=O)(=O)N(C)C)cc1NC(=O)CSc1ncc(C(F)(F)F)cc1Cl,,"inconclusive: 39.8 µM [activator, single point]"
O=C(OCC(=O)c1c[nH]c2ccccc12)c1cccc(S(=O)(=O)N2CCCCCC2)c1,,"inconclusive: 39.8 µM [inhibitor, single point]"
COc1c(Br)cc(C(N)=O)cc1OCc1ccccc1,,"inconclusive: 39.8 µM [inhibitor, single point]"
O=C(Cc1ccccc1)Nc1cccc(N2CCCC2)c1,,active: 25.1 µM
COc1ccc(-c2noc(-c3ccc(NCc4ccco4)c([N+](=O)[O-])c3)n2)cc1OC,,"inconclusive: 31.6 µM [inhibitor, single point]"
C/C(N)=C(/C#N)C(=O)COC(=O)c1cc(-c2cccc(Br)c2)nc2ccccc12,,"inconclusive: 39.8 µM [inhibitor, single point]"
CCOc1ccc(CCNC(=O)CCn2c(=O)c3cccn3c3ccc(F)cc32)cc1,inactive: 7.72%,
Clc1ccc(OCc2nn3c(-c4ccccc4)nnc3s2)c(Cl)c1,,"inconclusive: 31.6 µM [inhibitor, single point]"
COc1ccc(-n2nnnc2SCC(=O)NCCc2ccccc2)cc1,inactive: 14.9%,
Cc1ccccc1-c1noc(CSc2nc(-c3ccc(F)cc3)cc(=O)[nH]2)n1,inactive: -28.2%,
O=C(Nc1cccc(C(F)(F)F)c1)C1CCN(S(=O)(=O)c2cccc3nsnc23)CC1,inactive: -2.29%,
CCCc1nc2oc3c(NCc4ccccn4)ncnc3c2c2c1COC(C)(C)C2,,"inconclusive: 31.6 µM [activator, single point]"
COc1ccc(OCC(=O)N2CCN(Cc3cc(=O)n4nc(-c5ccccc5C)sc4n3)CC2)cc1,,"inconclusive: 31.6 µM [activator, partial curve]"
CC(=O)NS(=O)(=O)c1ccc(NC(=O)c2cccn(Cc3ccc(Cl)cc3)c2=O)cc1,,"inconclusive: 39.8 µM [activator, single point]"
COc1cccc(/C=C/c2nc(C#N)c(N3CCCCCC3)o2)c1,inactive: 29.3%,
CCC(C)NC(=O)c1c(N)n(/N=C/c2cccnc2)c2nc3ccccc3nc12 (stereo unspecified),,"inconclusive: 10 µM [activator, partial curve]"
CCn1c(SCC(=O)Nc2nccs2)nnc1-c1cc2cccc(OC)c2o1,,"inconclusive: 31.6 µM [inhibitor, single point]"
Cc1ccc(CNc2nc3ccc(C)cc3n3cnnc23)cc1,,"inconclusive: 39.8 µM [inhibitor, single point]"
CCOC(=O)CC(=O)CSc1nc(-c2ccccc2)cc(-c2ccc(Cl)cc2)c1C#N,,"inconclusive: 25.1 µM [inhibitor, partial curve]"
O=C(COC(=O)/C=C/c1ccc(Cl)cc1Cl)NCCC1=CCCCC1,,"inconclusive: 39.8 µM [inhibitor, single point]"
